From a compilation of properties of binary mixtures (doi:10.1002/cjce.21638)
Some of these densities may be calculated back from excess volumes.

Assay: xn = mol fraction of the nth substance listed
Settings: 101 kPa

c1cc[nH]c1 + CC[n+]1ccn(C)c1.CS(=O)(=O)[O-]
mass density [kg/m3]
Settings | x1 = 0.2 | x1 = 0.3 | x1 = 0.4 | x1 = 0.5 | x1 = 0.6 | x1 = 0.7 | x1 = 0.8
298.15 K | – | 1196 | – | 1166 | 1135.1 | 1110.8 | –
303.15 K | 1210 | 1193 | 1178 | 1163 | 1131.5 | 1107.2 | 1075.1
308.15 K | – | 1190 | 1172 | 1159 | 1127.9 | 1103.6 | 1071.3
313.15 K | 1203 | 1186 | 1169 | 1156 | 1124.4 | 1099.9 | 1067.5
318.15 K | – | 1183 | 1165 | 1152 | 1120.8 | 1096.3 | 1063.9
323.15 K | – | 1179 | 1162 | – | 1117.3 | 1092.7 | 1060.1

c1ccc2c(c1)CCN2 + CC[n+]1ccn(C)c1.CS(=O)(=O)[O-]
mass density [kg/m3]
Settings | 298.15 K | 303.15 K | 308.15 K | 313.15 K | 318.15 K | 323.15 K
x1 = 0.2 | 1215 | – | – | 1205 | 1201 | 1198
x1 = 0.3 | 1201 | 1198 | 1195 | 1191 | 1188 | 1185
x1 = 0.4 | 1188 | 1185 | 1182 | 1178 | 1175 | 1172
x1 = 0.5 | 1168 | – | 1161 | 1158 | – | 1151
x1 = 0.6 | 1149.7 | 1146.3 | 1143.1 | 1139.9 | 1136.5 | 1133
x1 = 0.7 | 1135.1 | 1131.6 | 1128 | 1124.4 | – | 1117.3

CC[n+]1ccn(C)c1.CS(=O)(=O)[O-] + c1ccncc1
mass density [kg/m3]
Settings | x2 = 0.2 | x2 = 0.3 | x2 = 0.4 | x2 = 0.5 | x2 = 0.6 | x2 = 0.7 | x2 = 0.8
298.15 K | – | 1204 | 1188 | 1171 | 1148 | 1124 | 1093.3
303.15 K | 1214 | – | – | – | 1147 | 1120 | –
308.15 K | 1210 | – | 1184 | 1164 | 1141 | – | 1084
313.15 K | 1207 | – | 1177 | 1160 | 1137 | 1112.2 | 1079.9
318.15 K | 1203 | – | 1174 | 1155 | – | 1103 | 1078
323.15 K | 1198 | – | 1170 | 1153 | 1130 | 1104.4 | 1071.7

c1ccc2ncccc2c1 + CC[n+]1ccn(C)c1.CS(=O)(=O)[O-]
mass density [kg/m3]
Settings | 298.15 K | 303.15 K | 308.15 K | 313.15 K | 318.15 K | 323.15 K
x1 = 0.2 | 1220 | – | 1213 | 1210 | 1206 | 1203
x1 = 0.3 | 1205 | – | 1198 | 1194 | 1191 | 1187
x1 = 0.4 | 1189 | – | 1180 | – | 1175 | 1172
x1 = 0.5 | – | 1181 | 1177 | 1173 | 1170 | 1166
x1 = 0.6 | 1167 | 1164 | 1160 | – | 1153 | –
x1 = 0.7 | 1150 | – | 1143 | 1139 | 1135.6 | –

CC[n+]1ccn(C)c1.CS(=O)(=O)[O-] + O
mass density [kg/m3]
Settings | 298.15 K | 303.15 K | 308.15 K | 313.15 K | 318.15 K | 323.15 K
x2 = 0.2 | 1231 | 1228 | – | – | – | 1215
x2 = 0.3 | 1224 | 1221 | 1218 | – | – | 1208
x2 = 0.4 | 1221 | 1218 | – | 1211 | 1208 | 1205
x2 = 0.5 | 1218 | 1215 | 1212 | 1209 | – | 1202
x2 = 0.6 | 1212 | – | 1205 | 1202 | 1198 | –
x2 = 0.7 | 1190 | 1187 | 1184 | 1180 | 1177 | 1173.5

CC[n+]1ccn(C)c1.CS(=O)(=O)[O-] + c1ccsc1
mass density [kg/m3]
Settings | x2 = 0.2 | x2 = 0.3 | x2 = 0.4 | x2 = 0.5 | x2 = 0.6 | x2 = 0.7 | x2 = 0.8
298.15 K | 1226 | 1218 | 1213 | 1210 | 1200 | 1192 | 1182
303.15 K | 1222 | 1215 | 1210 | 1206 | 1197 | – | 1180
308.15 K | 1219 | – | 1206 | 1202 | 1193 | 1184 | 1174
313.15 K | 1215 | 1208 | – | 1198 | 1189 | 1180 | 1172
318.15 K | – | 1204 | 1199 | 1194 | 1186 | 1176 | 1169
323.15 K | 1209 | 1201 | – | – | 1182 | 1173 | –
